Out of some 150,000 compounds screened, about 540 (0.36%) showed an effect of 50% or more. Some of the results follow.
Each compound was assayed on Plasmodium falciparum (assay: Primary screen in NF54 nanoGlo assay, in single point, at 2uM, 72h; a lower Z score goes with more inhibition). Conditions: timepoint 72 hour.
Format: functional, Erythrocyte
In the case of `CCCN(CC(=O)N1CCn2cccc2[C@H]1c1ccccc1F)C(=O)c1ccc(C)cc1`, the “% Inhibition” value is reported as -2% and the Z score is reported as 0.17.
With `CC(C)Oc1cc(-c2cccc(C(=O)NCc3cnn(C)c3)c2)nc(N)n1` the “% Inhibition” value was -8% and the Z score was 0.78.
With `CC(NC(C)C1CCCO1)C(=O)N(C)C(C)C` (stereo not given) the “% Inhibition” value was -13% and the Z score was 2.08.
In the case of `Cc1cccc(C(=O)N2CCc3[nH]c4ccc(F)cc4c3C2)n1`, the “% Inhibition” value is reported as -12% and the Z score is reported as 1.35.
`Cc1onc(-c2ccccc2)c1-c1n[nH]c2c1CN(S(C)(=O)=O)CC2` was tested, and the “% Inhibition” value was -3% and the Z score was 0.33.
`COc1cccc(-c2nc(NCc3ccncc3)ncc2C(=O)O)c1` was tested, and the “% Inhibition” value was -6% and the Z score was 0.73.
With `CC(c1ccc(Cl)cc1)C(C)N(C)S(=O)(=O)N(C)C` (stereo not given) the “% Inhibition” value was -2% and the Z score was 0.18.
In the case of `CCc1nsc(NCc2cc3n(n2)CCC3)n1`, the “% Inhibition” value is reported as 29% and the Z score is reported as -3.25.
With `CCCc1ncc(CNc2cccc(C(=O)O)n2)o1` the “% Inhibition” value was -11% and the Z score was 1.49.
`CNC(=O)c1cc(S(=O)(=O)N2CC=CC2)cn1C` was tested, and the “% Inhibition” value was -4% and the Z score was 0.78.
In the case of `Cc1nccn1C1CN(C(=O)CC2CCCC2)C1`, the “% Inhibition” value is reported as -9% and the Z score is reported as 1.15.
With `CS(=O)(=O)c1cccc(C(=O)N2CCC[C@H]2c2nnc3ccccn23)c1` the “% Inhibition” value was -9% and the Z score was 1.23.
For `Cc1c(COc2ccc(N)cc2F)cnn1C`, the “% Inhibition” value was 32% and the Z score was -3.67.
For `Cc1cc(C)c(C(=O)NC[C@H]2CCNCC2(F)F)o1`, the “% Inhibition” value was -6% and the Z score was 1.16.
For `C[C@@]1(C(=O)NCc2ccccc2)CCC(=O)N1Cc1cccs1`, the “% Inhibition” value was 4% and the Z score was -0.48.
In the case of `Cn1nc(C(F)(F)F)c(COC(=O)c2ccc(Cl)cc2)c1Oc1ccc(Cl)cc1`, the “% Inhibition” value is reported as 2% and the Z score is reported as -0.25.
In the case of `O=C(Nc1nc(C2CC3CCC2C3)cs1)N1CCCC1c1ccncc1` (stereo not given), the “% Inhibition” value is reported as -10% and the Z score is reported as 1.6.
In the case of `CN1CCCCC[C@H]1C(=O)NCCc1ccc(Cl)cc1`, the “% Inhibition” value is reported as 13% and the Z score is reported as -1.18.
For `Cc1ccc(CN2CCC[C@H](CNC(=O)c3cnco3)C2)cc1C`, the “% Inhibition” value was -8% and the Z score was 1.44.
For `COc1cc(C)nc(CN[C@H]2CCc3sc(Cl)cc32)c1`, the “% Inhibition” value was 11% and the Z score was -1.46.
In the case of `CC(C)N1CCC(Cc2ccc(CCNC(=O)C3CCOCC3)cc2)CC1`, the “% Inhibition” value is reported as 6% and the Z score is reported as -0.66.
With `Cc1cnn(CCNC(=O)[C@H](C)N2CCCC2)c1` the “% Inhibition” value was -14% and the Z score was 1.34.
With `COc1cccc(CN2CC[C@H]3C(=O)NCCCCCCN(Cc4ccncc4)[C@@H]3C2)n1` the “% Inhibition” value was -5% and the Z score was 0.65.
In the case of `CN(CCN1CCCCC1=O)C(=O)c1ccc[nH]1`, the “% Inhibition” value is reported as -5% and the Z score is reported as 0.76.
In the case of `C[C@@H](CCNC(=O)C1=Cc2ccccc2OC1)N1CCCC1`, the “% Inhibition” value is reported as -10% and the Z score is reported as 1.6.
In the case of `O=C(Nc1ccc(F)cc1)Nc1ccnn1C1CCCCC1`, the “% Inhibition” value is reported as 15% and the Z score is reported as -1.7.
In the case of `O=C1CN(c2ccc(NC(=O)C[C@@H]3C=CCC3)cn2)CCN1`, the “% Inhibition” value is reported as -13% and the Z score is reported as 1.15.
With `CCCn1cc(C(=O)N[C@H]2C[C@H](c3nnc(Cn4cccn4)n3C)C2)c(C)n1` the “% Inhibition” value was -26% and the Z score was 2.56.
For `Cc1ccc(C(C)(O)CNC2CCCC(C(F)(F)F)C2)o1` (stereo not given), the “% Inhibition” value was -15% and the Z score was 2.
For `CC1CC(NC(=O)NCCCC2CCCCO2)CC(C)O1` (stereo not given), the “% Inhibition” value was 28% and the Z score was -3.8.
`c1ccc(-c2csc(CN3C[C@H]4CC[C@@H](C3)N(CC3CC3)C4)n2)cc1` was tested, and the “% Inhibition” value was -25% and the Z score was 2.64.
With `O=C(N[C@H]1COC[C@H]1NC(=O)c1ccncc1F)c1ccncc1F` the “% Inhibition” value was 0% and the Z score was 0.02.
`Cc1cc(C)cc(NC[C@H](O)COC(C)C)c1` was tested, and the “% Inhibition” value was -10% and the Z score was 1.29.
For `C[C@]1(O)CCN(C(=O)c2cc(Cl)ccc2F)C[C@@H]1O`, the “% Inhibition” value was -2% and the Z score was 0.34.
In the case of `CC(NC(=O)C1CCC(=O)N1)c1csc2ccccc12` (stereo not given), the “% Inhibition” value is reported as -2% and the Z score is reported as 0.32.
With `CN(C)c1cccc(CNCc2c[nH]nc2-c2cccnc2)c1` the “% Inhibition” value was -4% and the Z score was 0.81.
`COc1ccc(CCNC(=O)c2c(-c3cccnc3)noc2C)cc1OC` was tested, and the “% Inhibition” value was 10% and the Z score was -1.79.
`CCCN(CCC)C(=O)c1csc(CN(Cc2ccc(F)cc2)Cc2ccc(Cl)cc2)n1` was tested, and the “% Inhibition” value was -6% and the Z score was 0.62.
`CC(C)n1ccc(C(=O)N2CCn3c2nc2ccccc23)n1` was tested, and the “% Inhibition” value was 7% and the Z score was -0.76.
With `Cc1nc2ccc(CNC(=O)[C@H](C)c3ccc(O)cc3)cc2[nH]1` the “% Inhibition” value was 6% and the Z score was -1.08.
For `Cc1ccc(NC(=O)N2CCOCCC2C)cc1NC(=O)N1CCOCCC1C` (stereo not given), the “% Inhibition” value was -5% and the Z score was 0.55.
`COc1cc(C(=O)N[C@H]2CN(C)C[C@@H]2OC)ccn1` was tested, and the “% Inhibition” value was -5% and the Z score was 0.95.
In the case of `CCN1CCC[C@@H]1CN1Cc2ccc(C(=O)NCc3nccs3)cc2C1=O`, the “% Inhibition” value is reported as -15% and the Z score is reported as 2.05.
`CC(C)N1CCc2cc(-c3nccn3CCN3CCOC3=O)ccc21` was tested, and the “% Inhibition” value was 21% and the Z score was -2.77.
With `CC(C)C(=O)N1CC(C)(C)c2cc(S(=O)(=O)N(Cc3ccco3)C3CCCCC3)ccc21` the “% Inhibition” value was 15% and the Z score was -1.76.
`O=C(CC1(CN2Cc3ccccc3C2=O)CCCCC1)Nc1cccnc1` was tested, and the “% Inhibition” value was -9% and the Z score was 1.21.
In the case of `COCCCNC(=O)C1Cc2cc(C(F)(F)F)ccc2N2CCN(CC(=O)N3CCOCC3)CC12` (stereo not given), the “% Inhibition” value is reported as -2% and the Z score is reported as 0.31.
In the case of `Cc1ccccc1[C@@H](O)CNC(=O)NCCC(=O)NC1CCCC1`, the “% Inhibition” value is reported as 3% and the Z score is reported as -0.49.
In the case of `C[C@H]1Cc2ccccc2N1C(=O)CN1CCN(C(=O)c2cccc(F)c2)CC1`, the “% Inhibition” value is reported as 2% and the Z score is reported as -0.25.
With `N#CC1(NC(=O)CCOc2ccccc2)CCC1` the “% Inhibition” value was 8% and the Z score was -0.9.
In the case of `CCc1nn(C)c(Cl)c1CN1CCC[C@H](CNC(=O)c2cc(C)on2)C1`, the “% Inhibition” value is reported as -6% and the Z score is reported as 1.16.
In the case of `O=C(CN1CCC(c2ncco2)CC1)Nc1ccc(F)c(Cl)c1`, the “% Inhibition” value is reported as -6% and the Z score is reported as 1.1.
In the case of `Cc1ccccc1OCC(=O)N1CCC[C@H]1c1nnc2ccccn12`, the “% Inhibition” value is reported as -2% and the Z score is reported as 0.41.
With `C=CCc1ccccc1OCCN(C)Cc1nccn1C` the “% Inhibition” value was -11% and the Z score was 1.03.
With `Cc1n[nH]c(C)c1S(=O)(=O)Nc1cc(F)ccc1OCC1CC1` the “% Inhibition” value was 6% and the Z score was -0.89.

Reference: ChEMBL document CHEMBL4888484, “Replenishing the malaria drug discovery pipeline: Screening and hit evaluation of the MMV Hit Generation Library 1 (HGL1) against asexual blood stage Plasmodium falciparum ,using a nano luciferase reporter read-out” (2022)
